Results reported in PMC12136788.
This is one part of the list.

B1: chr4:41958937:41959038:+|3pUTR|ENSG00000109133|msi1|total|mutant (ssRNA)
RNA: GGGAGUUCUACAGUCCGACGAUCUCUUGAACUCCUGGCCUCAAGUGAUCUGCCCGCCUCGACCUCCCAGAGUGCUGGGAUUACCGGUGUGAGCCACUAAGCCUGGCUGAGACAACCCGUUUCCCUUAACUCAUUGGAAUUCUCCAACAGAGGAUUGAGCAUCA
B2: chr3:69085097:69085224:+|CDS|ENSG00000144746|unk|total|mutant (ssRNA)
RNA: GGGAGUUCUACAGUCCGACGAUCGGGUUCCGAUCGCUUUGCCCGGCCGGACUUCAGGGACAUUUCCAAAUGGAACAACCGCGCCGUGAGCAACCUGCUCUAUUACCAGACCAACUACCUGGUGGUGGCUGCCAUGAUGAUUUCCAACAGAGGAUUGAGCAUCA
B3: ENSG00000198589:be:win_2151|CDS|ENSG00000198589|bound_else_gene|NA|bound_elsewhere_windowed (ssRNA)
RNA: GGGAGUUCUACAGUCCGACGAUCAAGGAAUGGGUUACGUGUUAUCUACAAACUUCUGGCAUCGAAAAGUGAAGGAAUCAGGGUACAAGCUCUUAAGGCAAUGGGUUAUUUUUUAAAACAUCUGGCCCCAAAGAGGAAAGCAGACAACAGAGGAUUGAGCAUCA
B4: ENSG00000107863:be:win_6201|3pUTR|ENSG00000107863|bound_else_gene|NA|bound_elsewhere_windowed (ssRNA)
RNA: GGGAGUUCUACAGUCCGACGAUCACUAACAAAAGUGCCUCAUCAUAAAAAUACAGUUGGUUUUUAGGGUGCCAUAUUGUUAAAAUUAGAUAACUUACUUACAUUGAAUAAACGAAUGCGUUUUAUUGGUAACAGAUAUCAUUACAACAGAGGAUUGAGCAUCA
B5: chr17:49053040:49053141:+|3pUTR|ENSG00000159217|unk|FALSE|unique (ssRNA)
RNA: GGGAGUUCUACAGUCCGACGAUCCUCAGCUCCUGUGAGGGGUCUGGUUAGGAGAGAGCCAUUUUUAAGGACAGGGAGUUUUAUAGCCCUUUUCUACUUUCCUCCCCUCCUCCCAGUCCUUAUCAAUCUUUUUUCCUUUUUCCUCAACAGAGGAUUGAGCAUCA
B6: ENSG00000186448:stop:overlap|stop_codon|ENSG00000186448|stop_codon|NA|stop_codon (ssRNA)
RNA: GGGAGUUCUACAGUCCGACGAUCUUGAGGAAUUCUCUUGGCUACAAAACACCAAUGAGUCCAAGAUUGAGAUUCAGAAAAUCUAGUGUCAUAUGUAAAAUGGAAUAGAAUCCCUGCCUACUUAAGUAACUGUUGGACAAAUGACAACAGAGGAUUGAGCAUCA
B7: ENSG00000198589:be:win_51|CDS|ENSG00000198589|bound_else_gene|NA|bound_elsewhere_windowed (ssRNA)
RNA: GGGAGUUCUACAGUCCGACGAUCCGGGGGAGGUGGAGGGAGAGAAGAAACCCCUACUGAAGGGGGUGCAUUGUCUCUGAAACCAGGGCUCCCCAUCAGGGGCAUCAGAAUGAAAUUUGCCGUGUUGACCGGUUUGGUUGAAGUCAACAGAGGAUUGAGCAUCA
B8: chr6:56640275:56640385:-|CDS|ENSG00000151914|unk|FALSE|bound_elsewhere (ssRNA)
RNA: GGGAGUUCUACAGUCCGACGAUCGACUUCCCGCCUGACUCCAUCUGUCACUCCAGCUUAUACACCUGGUUUCCCAUCAGGAUUAGUUCCAAAUUUCAGUUCAGGAGUAGAGCCAAAUUCAUUGCAAACUUUGAAGUUGAUGCACAACAGAGGAUUGAGCAUCA
B9: chr7:95359871:95360131:-|three_prime_utr|ENSG00000105852|control|control|control (ssRNA)
RNA: GGGAGUUCUACAGUCCGACGAUCCAAUGGCUCUGUGCUUCAGGGCACCUCUGUGGCUUCUGUGUACCAUGGGAAAAUUCUCAUAGGCACCGUAUUUCACAAAACUCUGUACUGUGAGCUCUAGACUCUAGAUAGUAAAAAAAACAACAGAGGAUUGAGCAUCA
B10: chr11:5233990:5234213:-|CDS|ENSG00000223609|control|control|control (ssRNA)
RNA: GGGAGUUCUACAGUCCGACGAUCGAUGCUGUUAUGGGCAACCCUAAGGUGAAGGCUCAUGGCAAGAAGGUGCUAGGUGCCUUUAGUGAUGGCCUGGCUCACCUGGACAACCUCAAGGGCACUUUUUCUCAGCUGAGUGAGCUGCAACAGAGGAUUGAGCAUCA
B11: chr9:34086386:34088349:-|three_prime_utr|ENSG00000198876|control|control|control (ssRNA)
RNA: GGGAGUUCUACAGUCCGACGAUCCUCAGUUUCCUUGUUUCUUUUGAUUUUUUUUUUCCUAAUUGUGUGAGGCUCUUGUGUUUUAGUGGGAACACCAAAGUUUGCCUAUAGUUUAGGCACUUAAUAGGAAGAAGCUCUGUACAGCAACAGAGGAUUGAGCAUCA
B12: chr2:162011792:162011987:-|CDS|ENSG00000197635|control|control|control (ssRNA)
RNA: GGGAGUUCUACAGUCCGACGAUCACUGUCUUCAGACUGAACUGGGCCACUUACCUUGCAAGCACAGAAAACAUUAUAGUAGCUAGCUUUGAUGGCAGAGGAAGUGGUUACCAAGGAGAUAAGAUCAUGCAUGCAAUCAACAGACAACAGAGGAUUGAGCAUCA
B13: chr15:85746268:85746369:+|3pUTR|ENSG00000170776|msi1|FALSE|bound_elsewhere (ssRNA)
RNA: GGGAGUUCUACAGUCCGACGAUCUGUUUUAUUUAUUGUAUUUGUGUGUUUGUGUUUGUUUUUUUUUAAGGGUGAGCCAGGUCUAGCCCAACAGUCUAAACUAUCCAGUCAAUACCGAGUGAAGUGGCAGCCAGCACUGUUCACCAACAGAGGAUUGAGCAUCA
B14: ENSG00000070961:be:win_5501|3pUTR|ENSG00000070961|bound_else_gene|NA|bound_elsewhere_windowed (ssRNA)
RNA: GGGAGUUCUACAGUCCGACGAUCCAGUAAUCCUCUGCAGGUCUUAGAAACACAUUGGCUCUGUCAGCAUUUGUAAUUGUACAUUUAUUCAUCAGGUAUUUAUAGUGAAUCAUACUGUAAAAAAGAGGUAGCAUGAUAUGCUGGCAACAGAGGAUUGAGCAUCA
B15: chr11:113276125:113276317:+|3pUTR|ENSG00000149294|msi1|FALSE|unique (ssRNA)
RNA: GGGAGUUCUACAGUCCGACGAUCGUCCGUGUAAAAUAGCUGCCUUUUAUUUUUUAAGGUAACAAAUACCACCUAGAGGUAGGUAGGAUCAUCCCACGCUUGCUUUAGCACAGGACAACUUUACAAAACAUGAUUGUUUACAGCCAACAGAGGAUUGAGCAUCA
B16: chr2:27376893:27376994:+|3pUTR|ENSG00000115234|msi1|FALSE|unique (ssRNA)
RNA: GGGAGUUCUACAGUCCGACGAUCGGGCUGGCUGCACAGAGGAUUGCCCCUUCUCUUUUCAGAGCUGGCCCUCGAUGCCAAAUUAGCAUUUAGUAUUUUGCACAAAGUCUAAGGGACCAUGGCUGCCUGCCUUGGGGAGGAACCCAACAGAGGAUUGAGCAUCA
B17: ENSG00000010278:stop:overlap|stop_codon|ENSG00000010278|stop_codon|NA|stop_codon (ssRNA)
RNA: GGGAGUUCUACAGUCCGACGAUCUUGGCAUGAUCUUCAGUAUGAUCUUGUGCUGUGCUAUCCGCAGGAACCGCGAGAUGGUCUAGAGUCAGCUUACAUCCCUGAGCAGGAAAGUUUACCCAUGAAGAUUGGUGGGAUUUUUUGCAACAGAGGAUUGAGCAUCA
B18: chr6:52501983:52502084:-|3pUTR|ENSG00000065308|msi1|total|mutant (ssRNA)
RNA: GGGAGUUCUACAGUCCGACGAUCGGCCGCCCUUGUUGAGUGUUCUUUGGAAUUGUCGUUUUUUGAGCACAACUACAGCAUUUCCGACUGCAUGAAACCAUGACUGACUGAGAGUCACUCUCUGGGCCGAUGACCGGCGCCUUUCAACAGAGGAUUGAGCAUCA
B19: chr6:89084018:89084151:+|CDS|ENSG00000146278|unk|FALSE|unique (ssRNA)
RNA: GGGAGUUCUACAGUCCGACGAUCACUGAAGUGAGCCAAAAGGAAAAUUAUGCUGGGGCAAAGUUUAGUGAUCCACCUUCUCCUAGUGUUCUUCCAAAGCCUCCUAGUCACUGGAUGGGAAGCACUGUUGAAAAUUCCAACCAACAACAGAGGAUUGAGCAUCA
B20: chr11:103061782:103061883:-|3pUTR|ENSG00000137692|unk|FALSE|unique (ssRNA)
RNA: GGGAGUUCUACAGUCCGACGAUCAAGACUGUUGGCCUUGACUUCUGGGAUAAUGAUUUGCUGAUGCAGCUAAUAAACAUUUCUAGGUAUUGGAAAAAUGCUCCUACUUUUAGCUCUGGGUUUCUAUAAAAGCUGCCAAGGUCUCAACAGAGGAUUGAGCAUCA
B21: chr12:49796586:49796721:-|CDS|ENSG00000167566|msi1|FALSE|unique (ssRNA)
RNA: GGGAGUUCUACAGUCCGACGAUCGAGGCCCACAGGCCAGGCUUCGGUGCUACCUCAGAGGGCCAGGGGCCCCUCCCCUUCCUUAGCAUGUUCAUGGGUGCUGGGGAUGCCCCACUGGGCUCUCGGCCUGGCCACCCCCAUUCCCAACAGAGGAUUGAGCAUCA
B22: ENSG00000136451:be:win_3051|3pUTR|ENSG00000136451|bound_else_gene|NA|bound_elsewhere_windowed (ssRNA)
RNA: GGGAGUUCUACAGUCCGACGAUCUGUGUUAAUCUUGCAGAAUGUUUGCAGGACUGACUAUCAAACUGGAUGAUUUCCAUUUAUACCCUACUGUGUCAGUUCAAGCAUCAAAAUACCUUGCAUCUGAGACAGACUUCCUACAUCCAACAGAGGAUUGAGCAUCA

What follows are binders tested against MSI1 full-length (mouse, UniProt Q61474 1-362) (assay: nsRBNS (natural sequence RNA bind-n-seq); RBNS binding buffer (assumed for nsRBNS): 25 mM Tris pH 7.5, 150 mM KCl, 3 mM MgCl2, 0.01% Triton X-100, 500 ug/ml BSA, 20 U/ml SUPERase-In, 4 C; UNK is unkempt and MSI1 is Musashi-1; names of the RNAs are library labels; protein concentration not given here; high values mean tight binding).
Sequence of UniProt Q61474 (Q61474 whole entry): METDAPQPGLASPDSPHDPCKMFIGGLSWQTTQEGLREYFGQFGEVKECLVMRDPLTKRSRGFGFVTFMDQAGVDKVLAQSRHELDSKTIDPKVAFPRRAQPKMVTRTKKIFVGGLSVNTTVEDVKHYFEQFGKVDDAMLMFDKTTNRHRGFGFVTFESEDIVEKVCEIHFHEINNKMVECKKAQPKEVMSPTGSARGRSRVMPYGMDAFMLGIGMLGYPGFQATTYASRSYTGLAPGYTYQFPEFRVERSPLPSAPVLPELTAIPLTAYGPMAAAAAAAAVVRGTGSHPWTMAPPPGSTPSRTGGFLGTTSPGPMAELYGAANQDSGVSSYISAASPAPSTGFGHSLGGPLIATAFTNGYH

Point of comparison: B4, binding signal 1.25 enrichment R. Against it:
- B1 — lower, 0.384 enrichment R
- B2 — lower, 0.282 enrichment R
- B3 — lower, 0.467 enrichment R
- B5 — higher, 1.26 enrichment R
- B6 — lower, 1.03 enrichment R
- B7 — lower, 0.39 enrichment R
- B8 — lower, 0.605 enrichment R
- B9 — higher, 1.64 enrichment R
- B10 — lower, 0.37 enrichment R
- B11 — higher, 4.2 enrichment R
- B12 — higher, 5.26 enrichment R
- B13 — higher, 5.8 enrichment R
- B14 — higher, 2.21 enrichment R
- B15 — lower, 0.716 enrichment R
- B16 — lower, 1.07 enrichment R
- B17 — lower, 0.361 enrichment R
- B18 — lower, 0.296 enrichment R
- B19 — lower, 0.343 enrichment R
- B20 — lower, 0.412 enrichment R
- B21 — lower, 0.353 enrichment R
- B22 — lower, 0.207 enrichment R
